In all, about 33,000 sequences were measured (“E-score (-0.5 to 0.5)”: median about -0.04, highest 2% from about 0.36 on). The list shows a part of the results.
target: T1, Hmlalpha2 (UniProt P0CY09); assay: PBM E-score (8-mer binding enrichment) (E-score (-0.5 to 0.5)); higher = stronger / more preferred TF binding; most listed sequences are background and not binding sites; conditions: protein concentration: 200 nM; construct: GST-full length
T1 sequence: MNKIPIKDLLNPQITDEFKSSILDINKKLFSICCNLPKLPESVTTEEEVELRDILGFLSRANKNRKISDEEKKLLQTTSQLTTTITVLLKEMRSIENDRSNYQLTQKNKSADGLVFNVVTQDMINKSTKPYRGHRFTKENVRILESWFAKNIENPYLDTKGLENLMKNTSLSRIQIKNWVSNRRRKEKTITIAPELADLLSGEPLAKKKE
Summary of the method: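 Bound GST-tagged yeast transcription factors, applied at about 100-200 nM to double-stranded universal all-10-mer Agilent arrays, were detected with fluorescent anti-GST. Scans were normalised with masliner. A modified Wilcoxon-Mann-Whitney statistic, the E-score, was assigned to each ungapped eight-base word pooled with its reverse complement by the Universal PBM Analysis Suite.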

Row | Sequence | PBM E-score
1 | GATATAAC | 0.26
2 | CGATTGGC | -0.143
3 | ATCACCCG | -0.269
4 | GTTCTGGA | 0.103
5 | AATGGATG | 0.0152
6 | ACAGGTAA | 0.114
7 | ACACAACA | 0.381
8 | AATGTTTC | -0.0508
9 | TCAAGGAA | -0.0123
10 | AGTGGTAT | -0.0786
11 | AATCGCCA | -0.0689
12 | TCCCGAAA | -0.104
13 | ACAAGTAT | 0.202
14 | AAGAGTGC | -0.0701
15 | AATTTGGT | 0.0967
16 | AGACTTAC | 0.12
17 | ACCACCCA | -0.145
18 | ATGCTCCG | -0.297
19 | GACGCGGC | 0.128
20 | CAAGCGGC | -0.0746
21 | CTCTTTAC | 0.233
22 | ACTTGACA | 0.239
23 | CGACGTTA | 0.231
24 | ACTACGGC | -0.197
25 | TCACTTAA | 0.117

Row | Sequence | PBM E-score
26 | GTAATACA | 0.397
27 | ACCATTAG | -0.0407
28 | AAGCCCCT | -0.253
29 | ATATTGAC | -0.0129
30 | GTTGTCAA | 0.263
31 | GCTATTAA | 0.217
32 | AGAAAACC | -0.288
33 | GGAATACC | -0.0768
34 | GCACATGA | 0.0937
35 | CCCGGTCA | -0.313
36 | ATTCTGTC | -0.137
37 | ACATAGCT | 0.219
38 | GTCTCTGA | -0.0549
39 | AATGTCAC | 0.173
40 | CGCTTTAA | 0.0665
41 | GAGAGACC | -0.262
42 | TACATCTA | 0.263
43 | ACGTCCGC | 0.0186
44 | ACTCGAAA | -0.0126
45 | ACAACCGT | 0.233
46 | ACATGGCC | 0.417
47 | ACAACCTA | 0.171
48 | TTGACCAA | -0.0386
49 | ATAAACTA | 0.244
50 | CGTAACAA | 0.228

Row | Sequence | PBM E-score
51 | CGAAGGAG | -0.176
52 | ACGAGTCG | -0.059
53 | CTGCTTAC | 0.0925
54 | ACAACAGC | 0.226
55 | AGCCCACG | -0.147
56 | ATTCCGGG | -0.0924
57 | AGGTAATC | 0.183
58 | CGCGTATC | 0.219
59 | AGTTCTGA | 0.0255
60 | AAAGGGCA | -0.206
61 | TGGGAACA | -0.00887
62 | CAACTTCA | 0.047
63 | ATAAGACA | 0.147
64 | AAGGGAGT | -0.219
65 | CATGAAGA | 0.137
66 | GTCCTATA | -0.0572
67 | AGACGAAG | 0.0678
68 | AACGTGGA | 0.198
69 | AAATGCAA | 0.0646
70 | CGACGATA | 0.00205
71 | ACGCAAAG | -0.0365
72 | AAAGTCCT | -0.214
73 | ACGACTTG | 0.0466
74 | GTGTCTAA | 0.291
75 | GAGTCTCC | -0.271

Row | Sequence | PBM E-score
76 | CCCTCGGC | -0.204
77 | CAAATCTA | 0.146
78 | GCAAACAC | 0.157
79 | ATTCCTGC | -0.121
80 | CGACAAAG | 0.126
81 | AAGTTTTC | 0.0613
82 | CGCGAACC | 0.00161
83 | CTGTTCTC | -0.0912
84 | GCACTACC | -0.121
85 | ACAGTCGA | -0.121
86 | AAGCAGCG | 0.13
87 | GCAATCCC | -0.164
88 | GAATGAAC | 0.149
89 | AGGTAACA | 0.291
90 | AAAAGAAA | 0.0596
91 | GAACCCGA | -0.145
92 | CAGAACGC | -0.0459
93 | GCACGCGA | 0.029
94 | CTAAGTCC | -0.395
95 | CTCACTCC | -0.201
96 | CTGAGTTC | 0.0144
97 | GGGGTGAC | -0.129
98 | TACCCAAA | 0.0217
99 | CCGCAAAC | -0.0215
100 | ACACTATG | 0.135

Row | Sequence | PBM E-score
101 | GGGCAACC | -0.288
102 | ACTTGTAT | 0.254
103 | AGCTCAAG | -0.218
104 | CTATAGGC | -0.171
105 | CTTGAAAG | -0.0812
106 | CCACCGAG | -0.341
107 | GCGCGAGC | -0.39
108 | CGTTCCCA | -0.181
109 | CAACAATG | 0.301
110 | CCGATTGC | 0.0705
111 | CATATTTC | 0.0458
112 | GTGGACAC | 0.0372
113 | CCCCATAG | -0.203
114 | AGCATCAG | -0.136
115 | ATAGTCCA | -0.077
116 | ACGAGGTA | 0.0171
117 | AAATATTA | 0.317
118 | CCGTCGAA | -0.155
119 | ATCAATCC | -0.169
120 | CGTAACTC | 0.0663
121 | AGGTTCAT | -0.158
122 | CATACCAC | -0.03
123 | CCGCGTGC | -0.117
124 | GATTAAAA | 0.172
125 | CACATGGC | 0.0319

Row | Sequence | PBM E-score
126 | AGAAGACC | -0.261
127 | CTGTACTA | 0.113
128 | ACAAATGG | 0.183
129 | CTACACGC | 0.428
130 | AAGTTACA | 0.297
131 | AGTCGCGA | -0.0755
132 | TAGTGTGA | 0.0401
133 | AGCTATCC | -0.278
134 | CCCGAGGC | -0.283
135 | ACGGGTTA | -0.147
136 | CCAACTCG | 0.00221
137 | ATGCCAAG | -0.124
138 | CCTGCCGA | -0.235
139 | GTACACTA | 0.135
140 | TCCATAGA | -0.143
141 | CTATGGCC | -0.191
142 | CCCGGGAC | -0.306
143 | CTTGTGTC | 0.0968
144 | TCACAAAA | 0.141
145 | AGCACGGA | 0.051
146 | CCCTGGAA | -0.378
147 | ACGTATCC | -0.0857
148 | TGGATAAA | -0.0263
149 | ACACACCC | 0.263
150 | CGTTGTCC | 0.136

Row | Sequence | PBM E-score
151 | ACCTCGAG | -0.00365
152 | CACCGCGG | -0.229
153 | ACCTCACA | 0.0475
154 | CATTATTA | 0.17
155 | CCTTAAAC | -0.15
156 | CGGACCGA | -0.0774
157 | TGGGGACA | -0.151
158 | AGACATTA | 0.198
159 | GAGTCTCA | -0.328
160 | ATTGTGAA | 0.156
161 | CAAAGGCG | 0.0132
162 | GCAAGGTA | 0.0236
163 | CAGCCCCA | -0.2
164 | GGATACAA | 0.251
165 | CCTATGAA | -0.065
166 | ATAATCTG | -0.0832
167 | AGGATCAA | -0.0375
168 | CAAGATCA | -0.0183
169 | ACCCCACC | -0.209
170 | AAATCCCT | -0.188
171 | CGACTCAG | -0.224
172 | ACTTACTA | 0.072

Reference: the supplement of paper PMC3334620
